Results are given in words; binding and its absence hold for the method and conditions named. Binding seen in cells or lysates may run through a third protein. Some binding calls cover weakened binding; strength is not graded here. For some assays here: Sequences can lack the tags named with a protein.
How the values were obtained:
HA-p62 = HA-p62 (UniProt Q13501); assay: co-IP; HA-p62 and Flag-tagged RIG-I, TLR3 or cGAS in the absence and presence of GFP or GFP-IRGM, HEK293T cell lysates; p62 immunoprecipitated
GFP-IRGM (human) = biological target: T1, GFP-IRGM (human) (UniProt A1A4Y4); assay: co-IP; GFP-IRGM and Flag-tagged proteins overexpressed in HEK293T, cell lysates; NP-40 lysis buffer, protein G dynabeads, 4°C; reverse co-IPs too; for cGAS, RIG-I and TLR3 also in control siRNA or p62 siRNA transfected cells
T1 sequence: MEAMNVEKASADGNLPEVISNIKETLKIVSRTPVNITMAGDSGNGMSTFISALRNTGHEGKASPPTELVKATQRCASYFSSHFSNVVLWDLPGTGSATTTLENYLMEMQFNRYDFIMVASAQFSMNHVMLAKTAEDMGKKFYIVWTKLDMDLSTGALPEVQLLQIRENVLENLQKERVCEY

The chains behind the UniProt entries cited, without tags or fusion partners. Residues count along the entry.
UniProt Q8N884: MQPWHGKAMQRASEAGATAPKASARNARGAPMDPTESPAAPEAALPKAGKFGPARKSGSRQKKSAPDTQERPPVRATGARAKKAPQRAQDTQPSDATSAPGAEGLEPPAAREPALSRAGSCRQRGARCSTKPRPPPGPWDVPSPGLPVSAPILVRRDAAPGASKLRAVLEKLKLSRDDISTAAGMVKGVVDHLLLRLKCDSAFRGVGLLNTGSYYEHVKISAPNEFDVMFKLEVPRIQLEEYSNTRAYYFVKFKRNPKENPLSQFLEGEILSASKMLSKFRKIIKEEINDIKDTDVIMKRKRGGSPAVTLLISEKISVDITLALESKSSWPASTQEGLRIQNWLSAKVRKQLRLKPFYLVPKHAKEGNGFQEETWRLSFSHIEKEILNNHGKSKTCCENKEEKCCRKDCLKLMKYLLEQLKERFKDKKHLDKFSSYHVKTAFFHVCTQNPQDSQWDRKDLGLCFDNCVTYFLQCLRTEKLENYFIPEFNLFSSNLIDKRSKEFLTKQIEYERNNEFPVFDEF
UniProt Q96CV9: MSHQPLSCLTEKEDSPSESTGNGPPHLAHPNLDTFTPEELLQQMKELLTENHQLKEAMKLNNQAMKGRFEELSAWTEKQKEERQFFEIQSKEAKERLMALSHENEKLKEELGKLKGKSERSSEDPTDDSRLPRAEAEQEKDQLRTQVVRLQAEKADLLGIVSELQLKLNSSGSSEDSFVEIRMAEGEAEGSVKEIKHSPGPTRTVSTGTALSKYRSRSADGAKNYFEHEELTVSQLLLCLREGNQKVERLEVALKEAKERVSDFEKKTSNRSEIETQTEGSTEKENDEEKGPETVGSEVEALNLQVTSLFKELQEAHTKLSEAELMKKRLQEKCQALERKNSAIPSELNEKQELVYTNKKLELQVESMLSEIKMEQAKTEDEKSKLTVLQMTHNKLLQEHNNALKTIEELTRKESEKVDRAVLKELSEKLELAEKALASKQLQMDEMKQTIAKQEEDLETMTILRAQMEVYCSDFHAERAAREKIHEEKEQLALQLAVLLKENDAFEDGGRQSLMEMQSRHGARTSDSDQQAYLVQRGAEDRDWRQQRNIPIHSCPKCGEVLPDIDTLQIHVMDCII
UniProt Q9NPP4: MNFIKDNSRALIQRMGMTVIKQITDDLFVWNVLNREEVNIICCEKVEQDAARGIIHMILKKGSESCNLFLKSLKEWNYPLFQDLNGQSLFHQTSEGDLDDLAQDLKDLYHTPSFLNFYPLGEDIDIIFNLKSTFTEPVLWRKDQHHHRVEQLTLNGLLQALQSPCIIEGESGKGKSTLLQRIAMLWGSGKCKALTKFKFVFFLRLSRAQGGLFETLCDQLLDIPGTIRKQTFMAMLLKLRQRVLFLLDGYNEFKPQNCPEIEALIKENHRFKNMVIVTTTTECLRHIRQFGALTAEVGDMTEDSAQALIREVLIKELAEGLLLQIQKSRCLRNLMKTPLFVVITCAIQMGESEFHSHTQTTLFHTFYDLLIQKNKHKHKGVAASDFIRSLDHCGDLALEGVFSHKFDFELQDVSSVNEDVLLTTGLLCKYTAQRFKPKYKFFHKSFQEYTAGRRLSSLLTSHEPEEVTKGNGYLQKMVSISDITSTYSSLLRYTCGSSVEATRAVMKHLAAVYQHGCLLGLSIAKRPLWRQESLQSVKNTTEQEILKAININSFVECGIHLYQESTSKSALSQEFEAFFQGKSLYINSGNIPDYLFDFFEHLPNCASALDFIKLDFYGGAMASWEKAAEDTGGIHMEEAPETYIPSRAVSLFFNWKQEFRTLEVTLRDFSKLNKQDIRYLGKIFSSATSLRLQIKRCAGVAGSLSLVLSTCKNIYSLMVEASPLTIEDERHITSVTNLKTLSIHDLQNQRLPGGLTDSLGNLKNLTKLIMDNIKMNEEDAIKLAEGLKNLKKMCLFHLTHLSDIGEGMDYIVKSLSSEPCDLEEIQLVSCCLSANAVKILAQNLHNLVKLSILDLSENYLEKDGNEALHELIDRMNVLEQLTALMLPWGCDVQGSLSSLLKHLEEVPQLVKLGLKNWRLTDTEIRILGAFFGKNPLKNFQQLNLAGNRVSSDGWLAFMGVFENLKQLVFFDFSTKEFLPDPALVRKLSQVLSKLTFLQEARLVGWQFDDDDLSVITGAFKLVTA
UniProt O00206, residues 24-839: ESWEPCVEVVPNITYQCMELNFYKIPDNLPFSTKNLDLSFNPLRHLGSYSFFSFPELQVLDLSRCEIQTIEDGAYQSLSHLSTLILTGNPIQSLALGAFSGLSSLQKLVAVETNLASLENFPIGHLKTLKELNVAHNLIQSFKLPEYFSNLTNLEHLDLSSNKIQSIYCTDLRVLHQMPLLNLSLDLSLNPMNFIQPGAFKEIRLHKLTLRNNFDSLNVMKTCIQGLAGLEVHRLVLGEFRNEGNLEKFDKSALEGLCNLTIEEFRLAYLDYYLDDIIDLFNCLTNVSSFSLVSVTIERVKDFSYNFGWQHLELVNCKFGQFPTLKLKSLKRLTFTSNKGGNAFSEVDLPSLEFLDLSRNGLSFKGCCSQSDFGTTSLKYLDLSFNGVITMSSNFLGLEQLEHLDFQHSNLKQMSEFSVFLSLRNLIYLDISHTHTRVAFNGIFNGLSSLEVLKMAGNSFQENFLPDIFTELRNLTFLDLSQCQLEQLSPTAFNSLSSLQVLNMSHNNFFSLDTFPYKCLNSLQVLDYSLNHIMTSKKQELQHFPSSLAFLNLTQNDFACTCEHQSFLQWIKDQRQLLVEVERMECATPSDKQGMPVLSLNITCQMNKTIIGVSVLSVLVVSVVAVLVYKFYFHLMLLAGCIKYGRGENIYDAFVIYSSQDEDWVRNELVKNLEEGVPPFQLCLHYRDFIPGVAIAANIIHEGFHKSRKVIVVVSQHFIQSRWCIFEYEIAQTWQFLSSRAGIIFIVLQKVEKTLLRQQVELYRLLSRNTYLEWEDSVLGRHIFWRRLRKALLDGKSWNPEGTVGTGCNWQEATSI

GST-IRGM (human) = biological target: T2, GST-IRGM (human) (UniProt A1A4Y4); assay: pull-down; GST or GST-IRGM on Glutathione Sepharose beads incubated with in vitro translated [35S]-labeled Myc-tagged proteins; NETN-E buffer (50 mM Tris pH 8.0, 100 mM NaCl, 6 mM EDTA, 6 mM EGTA, 0.5% NP-40, 1 mM DTT), 2 h at 4°C; autoradiography; only the target purified
T2 sequence: T1 sequence

[1] = biological target: T3, Immunity Related GTPase M (IRGM), endogenous (human (endogenous in THP-1)) (UniProt A1A4Y4); assay: co-IP; immunoprecipitation of endogenous IRGM and endogenous sensor proteins in THP-1 cell lysates; NP-40 lysis buffer, protein G dynabeads, 4°C
T3 sequence: T1 sequence

Row | Substance | binding (GFP-IRGM (human)) | binding [1] | other results
1 | Flag-cGAS (from UniProt Q8N884 1-522) | binds | – | –
2 | Flag-optineurin (from UniProt Q96CV9 1-577) | no binding | – | –
3 | Flag-p62 (from UniProt Q13501 1-440) | binds | – | –
4 | Myc-TLR3, in vitro translated (from UniProt O15455 1-904) (receptor) | – | – | binding (GST-IRGM (human)): binds weakly
5 | Myc-cGAS, in vitro translated (from UniProt Q8N884 1-522) | – | – | binding (GST-IRGM (human)): binds
6 | NLRC4, endogenous (from UniProt Q9NPP4 1-1024) | – | no binding | –

Second part, led by results:

Row | binding (GFP-IRGM (human)) | binding [1] | Substance | other results
7 | binds | – | Flag-TLR3 (from UniProt O15455 24-904) (receptor) | binding (HA-p62): binds
8 | – | binds | TLR3, endogenous (from UniProt O15455 24-904) (receptor) | –
9 | – | no binding | TLR4, endogenous (from UniProt O00206 24-839) (receptor) | –
10 | – | binds | cGAS, endogenous (from UniProt Q8N884 1-522) | –

Reference: paper PMC7507369
